In PubChem BioAssay AID1768 (National Center for Advancing Translational Sciences (NCATS), 2009):
In all, about 270,000 compounds went through this assay and about 620 (0.23%) were called active. This list was built around the results that the source calls inconclusive (neither active nor inactive); the mix of calls is not that of the screen. The call rests on the fitted dose curve; in most records, active means well fitted inhibition curve with a large enough effect in the polarisation, with a control signal flat (not every such curve was filed as active); inconclusive means small, poorly fitted or top-dose-only effect, or effect the other way, or a change in a side signal; inactive means no such curve, though single readings can be large or run the other way; the % refers to the polarisation. Potencies beside an inconclusive call are fits to weak or partial responses and may not hold up. “Side channel” marks fits to a control or component signal instead of the main read-out.
Potency means the concentration at half of the fitted maximal effect; tags describe the fitted curve by direction and shape or compound fluorescence and quenching.

Each compound was assayed against Menin (Homo sapiens) (UniProt O00255) (assay: qHTS Assay for Inhibitors Targeting the Menin-MLL Interaction in MLL Related Leukemias: Competition With Texas Red Labeled MLL-derived Mutant Peptide). Details: fluorescence polarization; series mostly up to 61.6 µM.
UniProt O00255, sequence (O00255 whole entry, looked up): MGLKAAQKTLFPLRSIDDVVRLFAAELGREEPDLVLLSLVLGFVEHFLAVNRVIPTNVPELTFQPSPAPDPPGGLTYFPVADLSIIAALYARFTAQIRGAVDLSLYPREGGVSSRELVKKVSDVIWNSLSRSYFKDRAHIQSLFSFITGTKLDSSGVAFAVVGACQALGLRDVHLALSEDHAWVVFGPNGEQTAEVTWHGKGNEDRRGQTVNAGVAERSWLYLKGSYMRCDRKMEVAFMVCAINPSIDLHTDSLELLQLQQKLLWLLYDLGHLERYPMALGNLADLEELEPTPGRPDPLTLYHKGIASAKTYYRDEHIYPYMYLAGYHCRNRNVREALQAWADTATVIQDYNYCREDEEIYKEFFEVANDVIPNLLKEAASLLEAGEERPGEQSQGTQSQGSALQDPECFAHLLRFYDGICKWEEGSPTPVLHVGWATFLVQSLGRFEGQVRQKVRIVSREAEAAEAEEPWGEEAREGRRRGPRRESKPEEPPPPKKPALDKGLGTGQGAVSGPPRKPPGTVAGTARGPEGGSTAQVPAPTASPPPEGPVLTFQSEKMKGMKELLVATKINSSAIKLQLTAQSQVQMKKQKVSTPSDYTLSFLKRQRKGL
`O=C(Nc1cccc(Cl)c1)c1cccc(Oc2ccc([N+](=O)[O-])cc2Cl)c1` was tested, and the Potency was inconclusive: 12.6 µM [quencher, side channel, partial curve].
In the case of `CC(C)c1ccc(N(CC(=O)NN=C2CCN(C)CC2)S(=O)(=O)c2ccccc2)cc1`, the Potency is reported as inconclusive: 3.55 µM [fluorescent, side channel, partial curve].
For `COc1ccc(/C=C2\C(=O)NC(=S)N2C(=O)c2ccc(F)cc2)cc1`, the Potency was inconclusive: 20 µM [quencher, side channel, partial curve].
`Oc1ccccc1CNc1ccc(OC(F)(F)F)cc1` was tested, and the Potency was inconclusive: 22.4 µM [quencher, side channel, partial curve].
With `CCC(=O)Nc1ccc(NC(=O)c2oc3ccccc3c2C)cc1` the Potency was “inactive”.
`COc1ccc(C2=NOC(C(=O)NCc3ccc(F)cc3)C2)cc1` (stereo unspecified) was tested, and the Potency was inconclusive: 39.8 µM [inhibitor, single point].
`Cc1ccc(-c2nc(N/N=C/c3ccccc3[N+](=O)[O-])c3ccccc3n2)cc1` was tested, and the Potency was inconclusive: 8.91 µM [quencher, side channel, partial curve].
For `Cc1cccc(N2CCN(S(=O)(=O)c3cccc4nonc34)CC2)c1C`, the Potency was inconclusive: 22.4 µM [quencher, side channel, single point].
`COc1ccccc1CN(C)CC(=O)Nc1ccccc1-c1ccccc1` was tested, and the Potency was inconclusive: 8.91 µM [fluorescent, side channel, partial curve].
With `Cc1cc(C)c2nc(NNC(=O)c3cc(=O)c4ccccc4o3)sc2c1` the Potency was inconclusive: 17.8 µM [quencher, side channel, partial curve].
For `CCOc1ccccc1OCCOCCN1CCN(Cc2ccccc2)CC1`, the Potency was “inactive”.
With `CN(Cc1ccccc1Cl)C(=O)c1cc2ccccc2o1` the Potency was inconclusive: 44.7 µM [inhibitor, single point].
In the case of `O=C1NC(=S)N/C1=C/c1ccc(-c2c(Br)cc([N+](=O)[O-])cc2Br)o1`, the Potency is reported as inconclusive: 17.8 µM [quencher, side channel, partial curve].
`O=C(CCN1C(=O)/C(=C/c2cccs2)SC1=S)Nc1cccc(O)c1` was tested, and the Potency was inconclusive: 17.8 µM [quencher, side channel, partial curve].
In the case of `CCOc1cccc(C(c2c(C)n(C)n(-c3ccccc3)c2=O)c2c(C)n(C)n(-c3ccccc3)c2=O)c1OC`, the Potency is reported as inconclusive: 11.2 µM [inhibitor, partial curve, poor fit].
`CCCCCC(=O)Nc1ccc(-c2csc(N)n2)cc1` was tested, and the Potency was inconclusive: 39.8 µM [quencher, side channel, single point].
`Oc1ccccc1N=Cc1sc2ccccc2c1Cl` was tested, and the Potency was inconclusive: 31.6 µM [quencher, side channel, single point].
For `O=C(Nc1ccc(N2CCN(C(=O)c3ccccc3)CC2)cc1)c1ccc([N+](=O)[O-])o1`, the Potency was inconclusive: 22.4 µM [quencher, side channel, partial curve].
In the case of `COc1cc(/C=N/Nc2cccc(C)c2)ccc1OC(=O)c1ccco1`, the Potency is reported as inconclusive: 10 µM [quencher, side channel, partial curve].
With `Cc1c(C(=O)NN)nn(-c2ccc(F)cc2)c(=O)c1C#N` the Potency was inconclusive: 2 µM [inhibitor, partial curve].
In the case of `CCn1cc(CCC(=O)NCc2ccccc2OC)c2ccccc21`, the Potency is reported as inconclusive: 28.2 µM [fluorescent, side channel, partial curve].
With `O=C(OCc1c(Cl)cccc1Cl)c1ccncc1` the Potency was “inactive”.
For `Cc1ccc(CN2C(=O)N/C(=C\c3cccn3-c3cccc(C(=O)O)c3)C2=O)cc1`, the Potency was “inactive”.
For `COc1ccc(-c2cc(C(=O)NNC(=S)NC(=O)c3c(-c4ccccc4)noc3C)[nH]n2)cc1`, the Potency was inconclusive: 17.8 µM [quencher, side channel, partial curve].
`CC1=C(C(=O)OC(C)C)C(c2cccc([N+](=O)[O-])c2)C(C(=O)OC2CN(C(c3ccccc3)c3ccccc3)C2)=C(N)N1` (stereo unspecified) was tested, and the Potency was inconclusive: 11.2 µM [quencher, side channel, partial curve].
For `CCN(C(=O)Cn1c(=O)oc2ccccc21)c1ccc(C)c(C)c1`, the Potency was inconclusive: 7.08 µM [inhibitor, full curve, poor fit].
With `Cc1nc(SCC(=O)N2CCc3ccccc3C2)c2c(C)c(C)sc2n1` the Potency was inconclusive: 17.8 µM [fluorescent, side channel, single point].
`CCn1c(NC(=S)Nc2ccccc2)nc2ccccc21` was tested, and the Potency was inconclusive: 39.8 µM [inhibitor, single point].
`Cc1cccc(OCCCC(=O)N2CCCc3ccccc32)c1C` was tested, and the Potency was inconclusive: 3.98 µM [fluorescent, side channel, full curve, poor fit].
For `N=c1c2c(-c3ccccc3)c(-c3ccccc3)n(Cc3ccco3)c2ncn1CCCn1ccnc1`, the Potency was inconclusive: 1.78 µM [fluorescent, side channel, partial curve].
`Oc1ccc(/C=N/Nc2ccc(C(F)(F)F)cn2)cc1` was tested, and the Potency was inconclusive: 25.1 µM [quencher, partial curve, poor fit].
`CS(=O)(=O)N1CCC2(CC1)CN(C(=O)Nc1cccc(F)c1)C2` was tested, and the Potency was “inactive”.
In the case of `Cc1ccccc1-n1c(C)cc(/C=N/NC(=O)c2ccc(CN3CCOCC3)cc2)c1C`, the Potency is reported as inconclusive: 11.2 µM [inhibitor, partial curve].
`Cc1ccccc1-c1cc2c(nn1)-c1ccccc1C2=O` was tested, and the Potency was inconclusive: 1.26 µM [inhibitor, full curve, poor fit].
`Cc1cccc(NC(=O)C2CC(=O)N(c3ccccc3)C2)c1C` (stereo unspecified) was tested, and the Potency was inconclusive: 39.8 µM [inhibitor, single point].
For `COc1cc(/C=N/NC(=O)CN(CCc2ccccc2)S(=O)(=O)c2ccc(NC(C)=O)cc2)cc(OC)c1OC`, the Potency was inconclusive: 20 µM [quencher, side channel, partial curve].
In the case of `O=C(CSc1nnc2c(n1)[nH]c1ccc(F)cc12)NC1CC1`, the Potency is reported as inconclusive: 39.8 µM [fluorescent, side channel, single point].
`CCn1c(SCC(=O)c2ccc(O)c(O)c2)nnc1-c1ccccc1` was tested, and the Potency was “inactive”.
In the case of `O=C(Cc1cccc(Cl)c1)Nc1ccc(Br)cc1`, the Potency is reported as inconclusive: 20 µM [quencher, side channel, partial curve].
`COc1ccc(C(C(=O)NC(C)(C)C)N(Cc2ccc(C)cc2)C(=O)CCC(=O)Nc2cc(C)on2)cc1` (stereo unspecified) was tested, and the Potency was inconclusive: 3.98 µM [fluorescent, side channel, full curve].
With `CC(=O)NS(=O)(=O)c1ccc(N=c2ssc3c2-c2cc(C)c(C)cc2NC3(C)C)cc1` the Potency was inconclusive: 31.6 µM [quencher, side channel, single point].
With `O=C1c2cc([N+](=O)[O-])cc3cc([N+](=O)[O-])cc(c23)C(=O)N1c1ccccn1` the Potency was inconclusive: 25.1 µM [fluorescent, side channel, partial curve].
For `Cc1ccc(CNC(=O)c2ccccc2NS(=O)(=O)c2ccc(Cl)nc2)cc1`, the Potency was inconclusive: 14.1 µM [quencher, side channel, partial curve].
In the case of `Cc1ccc(C(=O)N/C(=C\c2ccco2)C(=O)NCCN2CCOCC2)cc1`, the Potency is reported as inconclusive: 39.8 µM [fluorescent, single point].
For `COC(=O)COc1ccc(NC(=O)C(c2ccccc2)c2ccccc2)cc1`, the Potency was inconclusive: 15.8 µM [quencher, side channel, partial curve].
For `CCCOc1ccc(-c2nnn(CC(=O)c3c[nH]c4ccccc34)n2)cc1`, the Potency was inconclusive: 28.2 µM [inhibitor, partial curve].
For `CN(Cc1ccccc1)C(=O)COc1ccc(-c2nnco2)cc1`, the Potency was inconclusive: 39.8 µM [inhibitor, single point].
For `CCn1c(SCC(=O)Nc2cc(C)on2)nnc1-c1cccnc1`, the Potency was “inactive”.
For `CCCCn1c(-c2ccc(Cl)c(Cl)c2)nc2cc3[nH]c(=O)c(C(C)C)nc3cc21`, the Potency was inconclusive: 20 µM [inhibitor, partial curve, poor fit].
`COc1ccc(NC(=S)N(Cc2ccc(Cl)cc2)Cc2ccc(C(=O)O)cc2)cc1Cl` was tested, and the Potency was inconclusive: 10 µM [quencher, side channel, partial curve].
`O=C(CCCC(=O)N(c1ccc2c(c1)OCCO2)C(C(=O)NC1CCCCC1)c1ccc(F)cc1)Nc1ccccn1` (stereo unspecified) was tested, and the Potency was inconclusive: 8.91 µM [fluorescent, side channel, full curve].
In the case of `CCOc1ccc(C(C(=O)NCC2CCCO2)N(Cc2cccc(OC)c2)C(=O)c2snc(C(N)=O)c2N)cc1` (stereo unspecified), the Potency is reported as inconclusive: 35.5 µM [fluorescent, side channel, partial curve].
For `C/C(=N\NC(=O)c1nnn(-c2nonc2N)c1CN1CCc2ccccc21)c1ccccc1O`, the Potency was inconclusive: 6.31 µM [quencher, side channel, partial curve].
With `Cc1cccc(C)c1NC(=O)c1cccc2c1C(=O)N(C1CCCCC1)C2` the Potency was inconclusive: 4.47 µM [fluorescent, side channel, full curve, poor fit].
`O=C(N/N=C(/CC(=O)c1cccs1)C(F)(F)F)c1ccc(O)cc1` was tested, and the Potency was inconclusive: 35.5 µM [quencher, side channel, single point].
`CCC(CC)C(=O)N1CC(=O)Nc2ccc(F)cc2C1c1ccccc1` (stereo unspecified) was tested, and the Potency was inconclusive: 8.91 µM [inhibitor, partial curve].
